# Assay results: PubChem BioAssay AID686970 (National Center for Advancing Translational Sciences (NCATS), 2013)
# The campaign covered roughly 360,000 compounds. About 6,000 (1.7%) were called active. The inconclusive results got no clear call from the source; some entries with a clear call stand among them for comparison. The call rests on the fitted dose curve; in most records, active means well fitted cell-killing curve with a large enough effect; inconclusive means small, poorly fitted or top-dose-only effect, or effect the other way; inactive means flat fitted curve, though single readings scatter. No potency is given beside an inconclusive call; the fits are too rough.
# Experiment: qHTS for induction of synthetic lethality in tumor cells producing 2HG: qHTS for the HT-1080-NT fibrosarcoma cell line;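 further: NT is the 2HG producing partner of a matched IDH1 knockdown line; nearly all actives have a fitted effect of over 55% in size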;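 on activity, negative = less viability: 0% = DMSO-treated cells and -100% = media-only wells without cells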
# Conditions: HT-1080-NT fibrosarcoma viability, CellTiter-Glo ATP luminescence, 48 h; activity, negative = less viability: at 46.1 µM (top of the series) unless noted
# Summary of the method: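 Toxicity toward the 2HG-producing NT line was scored as %Activity, normalised to DMSO and no-cell wells, from CellTiter-Glo luminescence after 48 hours' treatment.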
# Potency means the concentration at half of the fitted maximal effect; tags describe the fitted curve by direction and shape.
SMILES,"activity, negative = less viability",Potency
Cc1csc(NC(=O)CSc2nnc(-c3ccoc3C)n2CCc2ccccc2)n1,inconclusive: -30.7% [cytotoxic],
O=C(COc1ccc(Cl)cc1)Nc1nc(-c2ccc(S(=O)(=O)N3CCOCC3)cc2)cs1,inconclusive: -32.8% [cytotoxic],
COc1ccc(C(=O)On2c(-c3ccc(Br)cc3)nc3ccccc3c2=O)cc1,,"inconclusive [cytotoxic, partial curve]"
CC(=O)c1cccc(CN2CCC(CO)(CCOc3ccccc3)CC2)c1,inactive: -2.23%,
CS(=O)(=O)N1CCCC(c2nc(-c3ccc(S(=O)(=O)NCc4ccccc4)cc3)no2)C1 (centres undefined),,"inconclusive [cytotoxic, partial curve]"
COc1ccc(C(=O)N2CCc3cc(OC)c(OC)cc3C2c2ccc(OC)c(OC)c2)cc1 (centres undefined),inactive: -24%,
CC(C)=CCn1c2ccc(NC(=O)Nc3cccnc3)cc2c(=O)n1C,,"inconclusive [rising, single point]"
COc1ccc(/C=N/Nc2nc(N3CCCC3)nc(N3CCCC3)n2)c(OC)c1OC,inactive: 5.19%,
O=C1CN(CCN2CC(=O)N(Cc3ccccc3)C(=O)C2)CC(=O)N1Cc1ccccc1,inactive: -5.02%,
CN(C)CC(C)(C)CNC(C(=O)Nc1ccc(Cl)cc1C(F)(F)F)c1ccccc1 (centres undefined),,"inconclusive [cytotoxic, partial curve]"
O=C(c1ccc(Cl)cc1)N1CCC(O)(CSc2ccc(Cl)cc2Cl)CC1,,"inconclusive [cytotoxic, single point]"
CC12CCC(=O)C=C1CCC1C2C(=O)CC2(C)C1CC[C@]2(O)C(=O)CO (some centres undefined),inconclusive: 14.9%,
COC(=O)c1cc(O)cc(OC)c1Oc1cc(C)cc(O)c1C(=O)O,,active: 23.1 µM
CC(C)NC(=S)N/N=C/c1cc(Br)ccc1O,,"inconclusive [cytotoxic, single point]"
O=C1NC[C@@H](CCCCN2CCN(CC3CCCCC3)C(=O)C2=O)N(CC2CCCCC2)C1=O,inactive: 9.24%,
Cc1ccc(C)c(C(C)NC(=S)NC2CCCCC2)c1 (centres undefined),,"inconclusive [cytotoxic, single point]"
C=CCC1(CC=C)CCCN1C(=O)c1cc(COc2ccc(-n3cncn3)cc2)on1,,"inconclusive [cytotoxic, single point]"
COc1cccc(C2=NN(C(=O)C3CC3)C(O)(C(F)(F)F)C2)c1 (centres undefined),inactive: -5.18%,
COc1ccc(C(=O)c2sc(Nc3ccccc3)nc2N)cc1OC,,"inconclusive [cytotoxic, partial curve]"
O=C(Nc1ccc(Cl)c(Cl)c1)N(CCCN1CCOCC1)Cc1cccs1,,"inconclusive [cytotoxic, single point]"
Cc1ccc(NC(=O)c2cc(=O)n(Cc3ccccc3)c(=O)[nH]2)cc1C,,"inconclusive [cytotoxic, single point]"
O=C(c1cn(-c2ccccc2)nc1-c1ccccc1)N1CCN(c2ccccn2)CC1,,"inconclusive [cytotoxic, single point]"
COc1ccccc1-c1cc(C(F)(F)F)nc(S(=O)(=O)CCCC(=O)NC(C)C)n1,,active: 5.8 µM

SMILES,"activity, negative = less viability",Potency
CCOc1cc(C(=S)N2CCC(O)CC2)ccc1OS(=O)(=O)c1ccc(Br)cc1,,"inconclusive [cytotoxic, single point]"
CCN(CC)S(=O)(=O)c1ccc(N2CCOCC2)c(NC(=O)c2ccc(=O)[nH]c2)c1,inactive: 1.49%,
O=C(O)C1CCC(Cn2c(SCc3cc(=O)n4ccccc4n3)nc3ccsc3c2=O)CC1 (centres undefined),,"inconclusive [cytotoxic, partial curve]"
CN(C)C(=O)c1cc(C(=O)Cc2ccccc2)c[nH]1,inactive: 0.333%,
COc1ccc(C(O)c2nc(-c3ccncc3)cs2)cc1 (centres undefined),inconclusive: -31.9% [cytotoxic],
CCCS(=O)(=O)c1c(S(=O)(=O)CCC)c2ccc(C(N)=O)cn2c1C(=O)c1ccc(OC)cc1,inactive: -2.56%,
COc1ccc(CC(N)c2csc(NC(=O)Nc3ccccc3Cc3ccccc3)n2)cc1 (centres undefined),,"inconclusive [cytotoxic, single point]"
Cc1ccc(N2CC(C(=O)OCC(=O)Nc3ccccc3C)CC2=O)cc1 (centres undefined),inactive: 13.3%,
O=C(CSc1nnnn1-c1ccc2c(c1)OCO2)NCc1ccccc1,,"inconclusive [cytotoxic, single point]"
CCN1CCN(c2ccc(S(=O)(=O)N3CCCCC3)cc2NC(=O)COc2ccc(F)cc2Cl)CC1,,active: 20.6 µM
O=C(Nc1ccccc1)c1nc[nH]c1C(=O)NCCN(CCNC(=O)c1[nH]cnc1C(=O)Nc1ccccc1)CCNC(=O)c1[nH]cnc1C(=O)Nc1ccccc1,,"inconclusive [cytotoxic, partial curve]"
Clc1ccc(C[n+]2cc(-c3ccccc3)n3c2CCC3)cc1Cl,,"inconclusive [cytotoxic, single point]"
COc1ccc(C(O)c2nc(-c3cccc(NC(C)=O)c3)cs2)cc1 (centres undefined),inactive: 13.8%,
Oc1oc(-c2ccc(Br)cc2)nc1/C=N/c1ccccn1,,"inconclusive [rising, partial curve]"
CCN1CCN(C(c2cccnc2)c2cc(Cl)c3cccnc3c2O)CC1 (centres undefined),,"inconclusive [cytotoxic, partial curve]"
Cc1cc(N=Cc2c(O)n(-c3ccc4c(c3)OCO4)c(=O)c3ccccc23)ccn1,,"inconclusive [cytotoxic, single point]"
O=C(NOCc1cscn1)Nc1ccccc1,inactive: -1.66%,
CCN(CC)CC(C)(C)C(=O)/C=C/c1ccc(/C=C/C(=O)C(C)(C)CN(CC)CC)cc1,,active: 5.8 µM
COc1ccccc1NS(=O)(=O)c1cc(NC(=O)c2ccc(NC(C)=O)cc2)ccc1N1CCOCC1,inactive: 2.27%,
CC1=C(C(=O)N(C(C)C)C(C)C)CC(CC(=O)NC(c2ccccc2)c2ccccc2)C(=O)N1Cc1ccc(C(C)(C)C)cc1 (centres undefined),,"inconclusive [cytotoxic, single point]"
CCC(=O)OCCNc1cc(Sc2nc3ccccc3[nH]2)c2nonc2c1[N+](=O)[O-],,"inconclusive [cytotoxic, single point]"
CC(C)=CCC/C(C)=C/Cc1c(O)ccc(C(=O)/C=C/c2ccc(O)cc2)c1O,,"inconclusive [cytotoxic, single point]"
O=C(O)C1=C[C@H](c2ccc(C(F)(F)F)cc2)C[C@H](OCCCCO)O1,inactive: 12.6%,

SMILES,"activity, negative = less viability",Potency
Cc1cccc(-c2nc(CS(=O)CC(=O)NCCc3ccc(Cl)cc3)c(C)o2)c1 (centres undefined),,"inconclusive [cytotoxic, single point]"
CSc1nnc(NC(=O)c2nc(S(=O)(=O)Cc3ccc(C)cc3)ncc2Cl)s1,,active: 7.31 µM
O=C(NCc1cccnc1)c1ccc(COc2ccc(Cl)cc2Cl)o1,inactive: -4.07%,
CC(C)(C)OC(=O)NCC1CCC(C(=O)NC[C@H](CC(=O)O)c2ccc(Cl)cc2)CC1 (some centres undefined),inactive: 4.14%,
Cn1c(CN2CCOCC2)nc2cc(NC(=O)c3ccc(F)cc3)ccc21,inactive: -9.54%,
Cc1ccccc1OCC(O)Cn1c(NCc2ccccc2)nc2c1c(=O)[nH]c(=O)n2C (centres undefined),,"inconclusive [cytotoxic, partial curve]"
CCC(O)C1CCN(Cc2cn(Cc3ccccc3)nc2-c2cc3ccccc3o2)CC1 (centres undefined),,"inconclusive [cytotoxic, single point]"
CCOC(=O)/C(=C\c1ccc(OC(F)F)cc1)C1=Nn2c(nnc2-c2ccc(Cl)cc2)SC1,,active: 5.8 µM
COc1ccc(-c2oc(NC(=O)CSc3nncn3C)c(C#N)c2-c2ccc(OC)cc2)cc1,,"inconclusive [cytotoxic, single point]"
CCN(C(=O)CN1C(=O)NC(c2ccccc2)(c2ccc(C)c(C)c2)C1=O)C1CCCCC1 (centres undefined),,"inconclusive [cytotoxic, single point]"
CCCCNS(=O)(=O)c1ccc(NS(=O)(=O)c2c(C)cc(C)cc2C)cc1,,"inconclusive [cytotoxic, single point]"
Cc1noc2ncnc(Sc3c(Cl)cccc3Cl)c12,,"inconclusive [cytotoxic, single point]"
CC(C)C(N)c1csc(NC(=O)Nc2cccc(C(F)(F)F)c2)n1 (centres undefined),,active: 20.6 µM
COc1ccc(N2CCN(CCCNC(=O)CCC(=O)N3CCOc4ccc(Cl)cc43)CC2)cc1,,"inconclusive [cytotoxic, single point]"
C=CCn1c(NCc2cc(Cl)ccc2O)nc2ccccc21,,"inconclusive [cytotoxic, single point]"
CCCCCn1c(Br)nc2c1c(=O)n(CC(N)=O)c(=O)n2C,inconclusive: 36.2%,
CCN(CC)C(=O)CSc1nc(N)c(C#N)c(-c2cccs2)c1C#N,,"inconclusive [cytotoxic, partial curve]"
Cc1cccc(Cn2c(NCCO)nc3c2c(=O)n(C)c(=O)n3C)c1,,"inconclusive [cytotoxic, single point]"
Cc1ccc(/C=N/NC(=O)Cc2c[nH]c3ccccc23)c(C)c1,,"inconclusive [cytotoxic, partial curve]"
O=C(Nc1ccc(F)cc1)c1ccc(S(=O)(=O)NCC2CCCO2)cc1 (centres undefined),,"inconclusive [cytotoxic, single point]"
O=Cc1cn(-c2ccccc2)nc1-c1ccccc1,inactive: -8.65%,
O=C(O)C1C2C=CC3(O2)C1C(=O)N1c2ccccc2COC13 (centres undefined),inconclusive: 37.7%,
C=CCN1C(=O)NC(c2ccc(OC)cc2)(C(F)(F)F)S/C1=C(\C#N)c1nnc(N2CCOCC2)n1-c1ccccc1 (centres undefined),,"inconclusive [cytotoxic, single point]"
